# Test results reported in publication PMC6919601, “Identification of Plasmodium dipeptidyl aminopeptidase allosteric inhibitors by high throughput screening” (PLoS ONE, 2019).
# Several values for one entry are separate records, joined by “and”; a condition that tells them apart may be missing. Identical values can stand only once. About 230 (0.21%) of roughly 110,000 compounds showed an effect of 50% or more. This is one part of the list.
# Biological target: DPAP1 (Plasmodium falciparum, UniProt Q8IIJ9)
# Experiment: primary screen, percent inhibition; read by cleavage of a fluorogenic dipeptide substrate; higher = more effect of the substance
# Design: species or system P. falciparum D10 trophozoite lysates; single well
# 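Note: 30 min substrate incubation versus DMSO and 10 µM JCP410 controls.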
# Sequence of DPAP1 (Q8IIJ9 whole entry, looked up): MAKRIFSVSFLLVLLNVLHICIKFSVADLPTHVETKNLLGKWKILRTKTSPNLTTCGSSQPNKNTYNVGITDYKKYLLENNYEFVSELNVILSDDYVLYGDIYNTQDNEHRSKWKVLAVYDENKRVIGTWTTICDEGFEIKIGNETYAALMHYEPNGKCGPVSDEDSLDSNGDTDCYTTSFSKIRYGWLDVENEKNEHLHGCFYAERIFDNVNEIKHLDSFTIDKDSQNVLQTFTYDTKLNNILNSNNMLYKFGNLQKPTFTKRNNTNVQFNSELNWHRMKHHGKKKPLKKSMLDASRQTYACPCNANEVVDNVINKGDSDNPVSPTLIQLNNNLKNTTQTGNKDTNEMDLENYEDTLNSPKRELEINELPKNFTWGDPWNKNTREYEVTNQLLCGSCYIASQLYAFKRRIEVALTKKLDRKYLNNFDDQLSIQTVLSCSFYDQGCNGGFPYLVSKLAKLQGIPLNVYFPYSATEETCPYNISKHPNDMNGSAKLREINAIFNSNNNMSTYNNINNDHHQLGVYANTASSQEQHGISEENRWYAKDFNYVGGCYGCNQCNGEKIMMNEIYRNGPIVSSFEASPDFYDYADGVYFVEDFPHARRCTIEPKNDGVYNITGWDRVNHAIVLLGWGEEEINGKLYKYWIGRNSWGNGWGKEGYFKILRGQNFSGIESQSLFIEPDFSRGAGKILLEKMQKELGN
row,Structure (SMILES),% Inhibition @ 10 uM
1,CCN1CCN(c2nc3c(c(=O)[nH]c(=O)n3C)n2CC(O)c2ccccc2)CC1 (centres unmarked),2.31%
2,CC1=NNC(=O)C1CCc1ccncc1 (centres unmarked),-3.53%
3,CC1CCN(CCOCCOc2ccccc2F)CC1,-1.51%
4,O=C(O)c1ccc(-n2c(S)nnc2Cn2ncc3ccccc3c2=O)cc1,-1.11%
5,CCOc1ccc(-c2cc(C(=O)OC)nc3c2c(=O)n(C)c(=O)n3C)cc1,-4.07%
6,CSc1ccc(CNC2=NS(=O)(=O)C(c3ccc(C(C)C)cc3)=C2C)cc1,-2.85%
7,N=C(NOC(=O)c1ccc2nsnc2c1)c1ncon1,-3.53%
8,CCc1ccc(CNC2=NS(=O)(=O)C(c3ccc(C(C)C)cc3)=C2C)cc1,2.27%
9,Cc1cc(O)c(C2=Nc3ccccc3SC(c3cccs3)C2)c(=O)o1 (centres unmarked),4.57%
10,CCOc1ccc(C(=O)Nc2nc3c(C)cccc3s2)cc1,-5.41%
11,CCCCC(NC(=O)CCN1C(=O)c2ccccc2C1=O)c1ccccc1 (centres unmarked),-10.7%
12,Oc1cc(O)c(-c2cc3ccccc3o2)cc1O,-3.09%
13,CCc1ccc(OCC(=O)Nc2cc(OC)ccc2OC)c(Br)c1,-0.312%
14,COc1ccc(-c2noc(CN(C(=O)Cc3ccc(-c4ccccc4)cc3)C(C)C)n2)cc1,-2.79%
15,Cc1ccc(OCCCCc2c(C)n[nH]c2C)c(C)c1,-4.01%
16,COc1ccccc1N(CC(=O)NCc1ccncc1)S(=O)(=O)c1ccc(C)cc1,-2.28%
17,CCOc1ccc(-c2csc(/C(C#N)=C\c3ccc(C(C)C)cc3)n2)cc1,2.22%
18,CCOc1ccc(S(=O)(=O)NCc2ccccn2)cc1C,-5.4%
19,O=C(O)C1CCN(S(=O)(=O)c2ccccc2Cl)CC1,-1.31%
20,CCc1nnc(NC(=O)Cc2ccc(Cl)cc2)s1,1.37%
21,COc1ccc2c3c(cccc13)C(=O)N(C)C2=O,-2.03%
22,COc1ccc(C(=O)NC(C)c2ccccc2)cc1OC (centres unmarked),0.467%
23,Cc1ccc(NC(=O)NC2CCCCC2)c(Br)c1,2.48%
24,O=C(NCc1cccs1)C1CCC(CNc2c(N3CCCCC3)c(=O)c2=O)CC1 (centres unmarked),2.84%
25,CCOC(=O)c1c(-c2cccs2)csc1NC=O,-3.98%
26,COc1ccc(C2C(C(=O)Nc3ccccn3)c3ccccc3C(=O)N2C)cc1 (centres unmarked),7.29%

row,Structure (SMILES),% Inhibition @ 10 uM
1,Cc1c(-c2ccccc2)sc2ncnc(O)c12,-4.18%
2,CCOc1ccc(CNc2nc3ccccc3n3c(CC)nnc23)cc1OC,0.91%
3,Cc1ccc(-c2noc(CCC(=O)NCc3ccc(F)cc3Cl)n2)cc1,-0.999%
4,O=C(Cc1csc2ccccc12)NC1CCCCCC1,-0.0309%
5,CCC[C@H](NC(=O)[C@H](CS(=O)(=O)NC1CCCCC1)NC(=O)OCc1ccccc1)C(=O)c1nc2ccccc2o1,-1.83%
6,CC1(C)CC2=NN(C(=O)c3ccco3)C(c3ccccc3)C2CO1 (centres unmarked),-5.29%
7,Cc1noc2ncnc(NCCc3ccc(S(N)(=O)=O)cc3)c12,-6.33%
8,Cc1ccccc1Cn1ccc(NC(=O)c2onc(C)c2Cl)n1,-1.7%
9,O=C(NCc1ccc2c(c1)OCO2)c1ccc2nc3[nH]c4ccccc4c3nc2c1,-7.73%
10,O=S1(=O)C=C(N2CCOCC2)CC1,2.56%
11,Cn1c(-c2ccccc2)nc2c(c1=O)C1(CCCCC1)Cc1ccccc1-2,2.51%
12,CC(C)Cc1ccc(C(C)C(N)=O)cc1 (centres unmarked),3.34%
13,Cc1cccc2c1cnn2C(=O)CCC(=O)NCC(C)c1ccccc1 (centres unmarked),1.68%
14,CCOCCCNC(=O)Cn1ncn2c(cc3sc(CC)cc32)c1=O,4.84%
15,CCn1c(S)nnc1-c1ccccc1Br,6.11%
16,CCn1c(C(=O)OC)cc2sc(Cl)cc21,-11%
17,O=S(=O)(Cc1ccccc1)Nc1ccc(F)cc1F,-0.13%
18,CC(C)C[C@H](NS(=O)(=O)c1ccc(C(F)(F)F)cc1)C(=O)NCC#N,-1.41%
19,CCn1cc(/C=C2/SC(=O)N(CC(=O)N3CCN(c4ccccc4)CC3)C2=O)c2ccccc21,-1.63%
20,CN(C)Cc1c(O)ccc2occ(C(O)c3ccccc3)c12 (centres unmarked),5.48%
21,Cc1ccc(CN2CCc3nc(O)nc(O)c3C2)cc1,-1.8%
22,COc1ccc(C2CC(C(F)(F)F)n3nc(C(=O)NCc4c(C)nn(C)c4C)c(Cl)c3N2)cc1 (centres unmarked),-2.8%
23,O=C1/C(=C\c2cccnc2)S/C(=N/c2ccccc2)N1Cc1ccccc1,0.214%
24,CC(C)(C)NC(=O)c1oc2ccccc2c1NC(=O)c1ccco1,6.68%
25,COc1ccc(C2=NN(CC(=O)NCCCSC3CCCCC3)C(=O)CC2)cc1,3.24%
26,COc1ccc(CCNC(=O)Cn2c(=O)c3sccc3n(Cc3ccc(F)cc3)c2=O)cc1OC,-9.28%

row,Structure (SMILES),% Inhibition @ 10 uM
1,CC(C)SC1=NSC2=NC(=O)/C(=C\c3ccc(OS(C)(=O)=O)cc3)C(=N)N21,6.91%
2,CCN1CCN(Cc2nc3c(c(=O)n(C)c(=O)n3C)n2Cc2c(F)cccc2Cl)CC1,1.23%
3,CCc1nc(C)cc(CN(C)C23CC4CC(CC(C4)C2)C3)c1O,-0.0953%
4,C#CCNc1cc(C)nc2nncn12,-0.808%
5,CCC(C)NC(=O)CN(C)c1nnc(N2CCCC2=O)s1 (centres unmarked),-0.542%
6,Cc1nc(O)c(C(c2ccc(C(=O)O)cc2)c2c(O)nc(C)nc2O)c(O)n1,-1.69%
7,O=[N+]([O-])c1ccc(S(=O)(=O)N2CCc3ccccc32)cc1,5.69%
8,O=C1CCCN1c1ccc(S(=O)(=O)Nc2ccccn2)cc1,-5.51%
9,CCN(CC)C(=O)c1sc2nc3c(cc2c1N)CCC3,2.17%
10,CN(C)CCCN(C(=O)c1ccc2ncsc2c1)c1nc2c(F)cccc2s1,3.96%
11,CCOc1ccc(-c2cc(C3CC3)c(C#N)c(N)c2C#N)cc1,5.69%
12,O=C1N=C(N2CCOCC2)S/C1=C\c1ccc(N2CCOCC2)cc1,-6.07%
13,CCCCN(CC)CCCNC(=O)C1CCN(c2nc3ccc(OC)cc3s2)CC1,2.59%
14,O=C(Nc1ccc(Cl)c(Cl)c1)C(O)(c1ccccc1)c1ccccc1,-4.21%
15,O=c1cc(CSc2ccccc2)nc2scc(-c3ccccc3)n12,-7.65%
16,O=C(CC1CC2CCC1C2)NC(c1ccccc1)c1ccccc1 (centres unmarked),0.238%
17,CC(C)CC(C(=O)NCC#N)c1cccc(-c2ccc(S(=O)(=O)NCc3ccccn3)cc2)c1 (centres unmarked),-3.04%
18,CC1SC(c2ccccc2)NC1=O (centres unmarked),-3.77%
19,Cc1cccc(OCCOCCN2CCN(C)CC2)c1C,-2.05%
20,CCSc1n[nH]c2nc3ccccc3n12,-2.21%
21,CC(=O)NC(Cc1ccccc1)C(=O)N[C@@H](CCc1ccccc1)C(=O)c1nc2ccccc2o1 (some centres unmarked),-1.83%
22,C=C(C)CN(CC)Cc1ccc(Cl)c([N+](=O)[O-])c1,-4.14%
23,CCc1nonc1NC(=O)c1sc2cc(C)ccc2c1Cl,0.00706%
24,CC(=O)Nc1ccc(N2C(=O)CC(N3CCCCC3C)C2=O)cc1 (centres unmarked),2.55%
25,CSc1ccc(CN2CCOCC2)cc1,-2.34%
26,CSCCOc1nc2c(c(=O)n(C)c(=O)n2C)n1Cc1ccccc1Cl,9.02%

row,Structure (SMILES),% Inhibition @ 10 uM
1,COc1ccc(/C=C2/C(=O)N(c3ccc(Br)cc3)N=C2c2ccccc2)c(OC)c1,-0.999%
2,COc1ccccc1/C=C1\SC(N2CCC(C)CC2)=NC1=O,16%
3,COc1ccc(C(=O)N2CCN(Cc3ccc(C(F)(F)F)cc3)CC2)cc1OC,-8.42%
4,CCOC(=O)NC(CC(=O)O)c1ccc(OC)c(OC)c1 (centres unmarked),-1.47%
5,COc1ccc(C2=NS(=O)(=O)N(C)C(C(=O)Nc3cccnc3)=C2)cc1OC,0.655%
6,CCOC(=O)c1nnn(CC(=O)N2N=C(c3ccccc3)CC2c2ccccc2)c1C(=O)OCC (centres unmarked),5.52%
7,COc1ccc(C2(CNC(=O)c3ccc(C)cc3)CCOCC2)cc1,-2.24% and -1.61%
8,c1cncc(CN2CCN(Cc3c[nH]c4ccccc34)CC2)c1,-11.4%
9,Cc1nn(Cc2ccccc2)c(C)c1NS(=O)(=O)c1ccccc1,-4.78%
10,COc1cc(-c2nnc3sc(-c4ccc(C(C)(C)C)cc4)nn23)cc(OC)c1OC,2.89%
11,O=C1c2ccc(F)cc2C(=O)N1Cc1ccccc1,-0.687%
12,O=C(Cc1ccncc1Br)NCCc1c[nH]c2ccccc12,2.79%
13,O=C(O)c1cccc(COc2ccc3ccccc3c2)c1,3.69%
14,COc1cc(C(=O)Nc2sc3c(c2C#N)CCC(C)C3)c(Br)c(OC)c1OC (centres unmarked),5.59%
15,CCOC(=O)c1c(C)n(C)c2ccc(OCC(O)CN3CCCCC3C)cc12 (centres unmarked),-8.95%
16,CO/C(O)=C1/C(C)=Nc2ncnn2C1c1ccc(OC)c(OC)c1 (centres unmarked),-0.339%
17,COc1ccc(CNC(=O)Cc2c(C)c3ccc(O)cc3oc2=O)cc1OC,-4.39%
18,CCOC(=O)c1sc2nc3c(cc2c1N)COC(C(C)C)C3 (centres unmarked),3.54%
19,CSc1nc(N(C)C)nc(N2CC(=O)N(CCNS(=O)(=O)c3ccc(C)cc3)C2=N)n1,2.3%
20,CC(=O)Nc1ccc(NC(=O)c2nn(C)cc2Br)cc1,-1.98%
21,COCCNC(=O)C(=O)NCC(c1cccnc1)N1CCOCC1 (centres unmarked),-1.72%
22,COc1cc(C2CC(=O)OC3=C2C(=O)c2ccccc2C3=O)ccc1OCc1ccccc1F (centres unmarked),7.51%
23,O=C(Nc1ccccc1)C1CC=CCC1C(=O)N(c1ccccc1)c1ccccc1 (centres unmarked),-3.66%
